# Reference: the supplement of paper PMC4604168 (melanoma cell lines)
# Some of the results follow. Repeats are few or missing, and single values can be far off.
# What was measured:
# Assay in all cases: cell count relative to DMSO control; melanoma cells; higher = more viable cells
# Settings in all cases: library dose: low library concentration; 72 h
# MZ2-MEL = system: MZ2-MEL
# MeWo = system: MeWo
# RPMI7951 = system: RPMI7951
# RVH-421 = system: RVH-421
# SkMel28 = system: SkMel28
# SkMel30 = system: SkMel30
# SkMel5 = system: SkMel5
# UACC257 = system: UACC257
# UACC62 = system: UACC62
# SkMel2 = system: SkMel2
# 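Note: cell number obtained by counting DAPI-stained nuclei in high-throughput microscope images with image analysis software, screen run in 1,536-well plates.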
Structure (SMILES),cell count (MZ2-MEL) [%],cell count (MeWo) [%],cell count (RPMI7951) [%],cell count (RVH-421) [%],cell count (SkMel28) [%],cell count (SkMel30) [%],cell count (SkMel5) [%],cell count (UACC257) [%],cell count (UACC62) [%],cell count (SkMel2) [%]
"Cn1nnc2c(C(N)=O)ncn2c1=O [temozolomide] + CCc1ccc(CCOc2ccc(CC3SC(=O)NC3=O)cc2)nc1 [pioglitazone] (first compound 2 µM, partner dose 2 µM)",83.5,97.7,89.2,564,77,94.6,97.3,114,81.7,–
"Cc1cc(N2CCOCC2)cc2[nH]c(-c3c(NC[C@@H](O)c4cccc(Cl)c4)cc[nH]c3=O)nc12 + Oc1nc(-c2ccc(C(F)(F)F)cc2)nc2c1CSCC2 [XAV939] (first compound 0.2 µM, partner dose 2 µM)",–,99.5,95.7,100,91.5,109,91.1,77,92.4,–
"O=C(O)[C@@H]1[O][Sb](=[O])([O][Sb]2(=[O])[O][C@H]([C@H](O)CO)[C@H](O)[C@H](C(=O)O)[O]2)[O][C@H]([C@H](O)CO)[C@@H]1O (stereo not given in full) [stibogluconate] + Nc1ncn([C@H]2C[C@H](O)[C@@H](CO)O2)c(=O)n1 [decitabine] (first compound 2 µM, partner dose 0.1 µM)",–,98.9,105,90.3,110,101,–,–,64.5,106
"O=C(O)[C@@H]1[O][Sb](=[O])([O][Sb]2(=[O])[O][C@H]([C@H](O)CO)[C@H](O)[C@H](C(=O)O)[O]2)[O][C@H]([C@H](O)CO)[C@@H]1O (stereo not given in full) [stibogluconate] + COc1cc2ncnc(Nc3ccc(Oc4ccccc4)cc3)c2cc1OC [SrcI1] (first compound 2 µM, partner dose 2 µM)",–,104,104,116,112,95,110,144,120,113
"O=C(O)c1ccc2c(c1)nc(Nc1cccc(Cl)c1)c1ccncc12 + Cc1cc([N+](=O)[O-])ccc1NS(=O)(=O)c1cc(Cl)ccc1Cl [FH535] (first compound 0.4 µM, partner dose 1 µM)",–,98,114,100,97.4,84.2,91.7,77.1,87.7,96.2
"O=C(O)c1ccc2c(c1)nc(Nc1cccc(Cl)c1)c1ccncc12 + C#Cc1cccc(Nc2ncnc3cc(OCCOC)c(OCCOC)cc23)c1 [erlotinib] (first compound 0.4 µM, partner dose 0.8 µM)",–,84.8,91.1,121,123,72.3,–,–,80.2,95.7
"Cn1nnc2c(C(N)=O)ncn2c1=O [temozolomide] + Oc1nc(-c2ccc(C(F)(F)F)cc2)nc2c1CSCC2 [XAV939] (first compound 2 µM, partner dose 2 µM)",–,92.3,86.3,82.8,77.6,106,87.6,83,64.4,–
"O=C(Nc1cc(C(F)(F)F)cc(C(F)(F)F)c1)c1cc(Cl)ccc1O + CCCCCCCCCCCC1=C(O)C(=O)C=C(O)C1=O [Embelin] (first compound 0.016 µM, partner dose 1.2 µM)",–,102,104,94.5,102,104,93.5,73.5,93.5,–
"O=C(Nc1cc(C(F)(F)F)cc(C(F)(F)F)c1)c1cc(Cl)ccc1O + Nc1ccn([C@@H]2O[C@H](CO)[C@@H](O)C2(F)F)c(=O)n1 [gemcitabine] (first compound 0.016 µM, partner dose 0.0004 µM)",–,103,73.3,117,90.5,107,–,–,99.4,–
"Cn1nnc2c(C(N)=O)ncn2c1=O [temozolomide] + CCN(CC)CCCCNc1ncc2cc(-c3cc(OC)cc(OC)c3)c(NC(=O)NC(C)(C)C)nc2n1 [PD173074] (first compound 2 µM, partner dose 0.1 µM)",–,105,95,86.1,70.6,90.7,100,80,85,–
"O=C(Nc1cc(C(F)(F)F)cc(C(F)(F)F)c1)c1cc(Cl)ccc1O + CCCCCCCCc1ccc(CCC(N)(CO)CO)cc1 [fingolimod] (first compound 0.016 µM, partner dose 2 µM)",94.5,92.4,99.2,88.6,91.1,119,–,–,102,–
"O=C(Nc1cc(C(F)(F)F)cc(C(F)(F)F)c1)c1cc(Cl)ccc1O + CO[C@H]1C[C@@H]2CC[C@@H](C)[C@@](O)(O2)C(=O)C(=O)N2CCCC[C@H]2C(=O)O[C@H]([C@H](C)C[C@@H]2CC[C@@H](OCCO)[C@H](OC)C2)CC(=O)[C@H](C)/C=C(\C)[C@@H](O)[C@@H](OC)C(=O)[C@H](C)C[C@H](C)/C=C/C=C/C=C/1C [everolimus] (first compound 0.016 µM, partner dose 0.02 µM)",73.2,60,78.2,93,54.3,72.6,–,–,63.7,–
"O=C(Nc1cc(C(F)(F)F)cc(C(F)(F)F)c1)c1cc(Cl)ccc1O + CC(=O)O[C@@]12CO[C@@H]1C[C@H](O)[C@@]1(C)C(=O)[C@H](O)C3=C(C)[C@@H](OC(=O)[C@H](O)[C@@H](NC(=O)OC(C)(C)C)c4ccccc4)C[C@@](O)([C@@H](OC(=O)c4ccccc4)[C@H]21)C3(C)C [Docetaxel] (first compound 0.016 µM, partner dose 0.0001 µM)",–,54.2,51.5,78.7,67.7,53.5,–,–,48.6,–
"O=C(Nc1ccccc1)c1cc([N+](=O)[O-])ccc1Cl + Cc1cc([N+](=O)[O-])ccc1NS(=O)(=O)c1cc(Cl)ccc1Cl [FH535] (first compound 2 µM, partner dose 1 µM)",–,80.5,110,91.4,96.3,99.2,82,104,89.9,–
"O=C(Nc1ccccc1)c1cc([N+](=O)[O-])ccc1Cl + N#Cc1c(O)c2c(-c3ccc(-c4ccccc4O)cc3)csc2[nH]c1=O [A769662] (first compound 2 µM, partner dose 2 µM)",103,107,110,105,90.6,120,89.5,97.2,99.8,–
"O=C(Nc1ccccc1)c1cc([N+](=O)[O-])ccc1Cl + COc1ccc(-c2ccc3c(N4CCOCC4)nc(N4C[C@@H](C)O[C@@H](C)C4)nc3n2)cc1CO [KU0063794] (first compound 2 µM, partner dose 0.02 µM)",–,85.1,105,104,92.5,109,85.7,87.4,91.2,–
"O=C(O)c1ccc2c(c1)nc(Nc1cccc(Cl)c1)c1ccncc12 + C=CCn1c(=O)c2cnc(Nc3ccc(N4CCN(C)CC4)cc3)nc2n1-c1cccc(C(C)(C)O)n1 [MK1775] (first compound 0.4 µM, partner dose 0.02 µM)",–,94.1,100,86.9,89.3,85.4,82.9,113,79.7,82.6
"O=C(O)[C@@H]1[O][Sb](=[O])([O][Sb]2(=[O])[O][C@H]([C@H](O)CO)[C@H](O)[C@H](C(=O)O)[O]2)[O][C@H]([C@H](O)CO)[C@@H]1O (stereo not given in full) [stibogluconate] + C[C@]1(c2nc3c(C(N)=O)cccc3[nH]2)CCCN1 [Veliparib] (first compound 2 µM, partner dose 1.4 µM)",101,95.4,83.6,109,89.8,91.7,–,–,86.9,–
"O=C(Nc1cc(C(F)(F)F)cc(C(F)(F)F)c1)c1cc(Cl)ccc1O + Cn1cc(/C=C2\C(=O)Nc3cccnc32)c2ccccc21 [GW441756] (first compound 0.016 µM, partner dose 0.4 µM)",–,106,98.5,92.2,91.1,114,76.2,83.1,93.5,100
"O=C(Nc1cc(C(F)(F)F)cc(C(F)(F)F)c1)c1cc(Cl)ccc1O + C[C@]1(c2nc3c(C(N)=O)cccc3[nH]2)CCCN1 [Veliparib] (first compound 0.016 µM, partner dose 1.4 µM)",–,86.5,85.7,100,84.3,105,–,–,83.6,–
"Cc1cc(N2CCOCC2)cc2[nH]c(-c3c(NC[C@@H](O)c4cccc(Cl)c4)cc[nH]c3=O)nc12 + Oc1cc(-c2nc(-c3ccccc3)[nH]c2-c2ccncc2)ccc1Cl [L779450] (first compound 0.2 µM, partner dose 0.2 µM)",–,95,93,72.5,75.2,109,108,91.1,55.3,–
"O=C(O)[C@@H]1[O][Sb](=[O])([O][Sb]2(=[O])[O][C@H]([C@H](O)CO)[C@H](O)[C@H](C(=O)O)[O]2)[O][C@H]([C@H](O)CO)[C@@H]1O (stereo not given in full) [stibogluconate] + O=S(=O)(c1ccccc1)N(CC(F)(F)F)c1ccc(C(O)(C(F)(F)F)C(F)(F)F)cc1 [T0901317] (first compound 2 µM, partner dose 1.4 µM)",–,106,128,91.3,118,106,105,129,91.2,91.1
"Cn1nnc2c(C(N)=O)ncn2c1=O [temozolomide] + Cc1cc([N+](=O)[O-])ccc1NS(=O)(=O)c1cc(Cl)ccc1Cl [FH535] (first compound 2 µM, partner dose 1 µM)",–,97.4,92.4,91.7,97.4,76.3,84.6,75.1,84.8,–
"O=C(O)[C@@H]1[O][Sb](=[O])([O][Sb]2(=[O])[O][C@H]([C@H](O)CO)[C@H](O)[C@H](C(=O)O)[O]2)[O][C@H]([C@H](O)CO)[C@@H]1O (stereo not given in full) [stibogluconate] + N#Cc1c(O)c2c(-c3ccc(-c4ccccc4O)cc3)csc2[nH]c1=O [A769662] (first compound 2 µM, partner dose 2 µM)",–,104,99.5,103,93.9,131,96.9,107,98.3,110
"O=C(Nc1cc(C(F)(F)F)cc(C(F)(F)F)c1)c1cc(Cl)ccc1O + Nc1ncn([C@H]2C[C@H](O)[C@@H](CO)O2)c(=O)n1 [decitabine] (first compound 0.016 µM, partner dose 0.1 µM)",–,100,75.4,80.5,101,93.4,–,–,76.3,–
